Source: PubChem BioAssay AID1508624 (National Center for Advancing Translational Sciences (NCATS), 2021)
Among all 48,000 compounds or so, about 120 (0.25%) were called active. About 4% were inconclusive and are not listed. Calls come from the whole dose curve; as a rule, active = well fitted activation curve with a large enough effect; inconclusive = small, poorly fitted or top-dose-only effect, or another doubt; inactive = no such curve, though single readings can be large or run the other way. The list shows a part of the results.

Assay: Primary qHTS for Identification of Small Molecule Activators of Huntingtin-Antisense Promoter Activity; note: nearly all actives have a fitted effect of over 55% in size
Settings: HEK293 HTT-AS promoter firefly luciferase reporter, 24 h; series mostly up to 57.5 µM; activity change, positive = activation: at the top concentration
How it was run: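 Firefly luciferase readout (Dual-Glo, 10 min RT) after 24 h, 37 °C compound exposure (final up to 57.5 uM) of HEK293 reporter cells cultured 24 h beforehand; PTC124 at 50 uM final as control inhibitor; activity scaled vehicle 0%, zero RLU -100%.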

Activity change, positive = activation, inactive:
CCOC(=O)Cn1c(=O)n(CC2CCCO2)c2nc(-c3cc(OC)ccc3OC)nc(C(N)=O)c21 (stereo unspecified) -13.6%
CC(C)c1nn2c(=O)cc(COC(=O)c3ccc(NC(=O)c4cccs4)cc3)nc2s1 1.34%
CCCOc1ccc(C(=O)N(Cc2ccco2)Cc2ccco2)cc1 0.407%
O=C(NCC(c1cccs1)S(=O)(=O)c1cccs1)c1c(F)cccc1F (stereo unspecified) -12.2%
COc1ccc(OC(=O)c2nc(SCc3ccccc3C)ncc2Cl)cc1 2.64%
Cc1ccccc1OCC(=O)Nc1ccccc1OCc1cc(=O)n2ccccc2n1 7.4%
COc1ccnc(CS(=O)c2nc3ccc(OC(F)F)cc3[nH]2)c1OC (stereo unspecified)
COc1cccc(CSc2nc3n(n2)C(CC(C)C)C(C(=O)Nc2ccccc2C)=C(C)N3)c1 (stereo unspecified) -0.845%
COc1ccc(C(=O)Nc2cccc(C(=O)OCc3cc(=O)n4c5c(sc4n3)CCCC5)c2)cc1 -18.1%
Cc1ccc(CCNC(=O)CCCc2nnc3n(C)c(=O)c4sccc4n23)cc1 4.5%
Cc1cc(C)c2c(CC(=O)Nc3cc(C(F)(F)F)ccc3Cl)coc2c1 -13.1%
COc1ccccc1-n1c(=O)n(C)c2c(C(N)=O)nc(-c3cccc(OC)c3OC)nc21 -14.8%
CC(NC(=O)c1ccc2c(c1)sc1nc(-c3ccc(F)cc3)cn12)C12CC3CC(CC(C3)C1)C2 (stereo unspecified) 15.7%
FC(F)(F)c1cccc(Nc2c3c(nc4ccc(Cl)cc24)CCC3)c1 -49.7%
COc1cc(OC)c(NC(=O)CCc2c(C)nc3c4c(C)cc(C)nc4nn3c2C)cc1Cl -6.28%
CCCCCN1C(C(=O)c2ccccc2)=C(OC(=O)CC)c2ccccc2S1(=O)=O -43.3%
COc1cc(NC(=O)C2CCN(S(=O)(=O)c3c(C)noc3/C=C/c3ccccc3F)CC2)cc(OC)c1OC -27.1%
Cc1ccc(CCNC(=O)c2ccc(Nc3nc4ccccc4n4nnnc34)cc2)cc1 2.95%
CCN(CCCNC(=O)Cn1ncc2c([nH]c3ccc(C)cc32)c1=O)c1ccccc1 -15.2%
N#Cc1cc2c(=O)n3ccccc3nc2n(-c2nnc(SCc3ccccc3Cl)s2)c1=O 8.37%
CCC(Sc1nc2n[nH]c(C)c2c(=N)n1-c1ccccc1Cl)C(=O)N(CC)CC (stereo unspecified) -22.8%
Cc1cccc(NC(=O)c2cc3c(=O)n(Cc4cccnc4)ccc3nc2C)c1 -7.24%
COc1ccc(NC(=O)CCn2cnc3onc(-c4ccc(F)cc4)c3c2=O)cc1OC -54%
CC1Cn2c(C(=O)NCc3ccccc3Cl)cc3cccc(c32)S1 (stereo unspecified) -12%
CCC(=O)N1c2ccccc2CC1C(=O)NCc1cc(Br)ccc1OC (stereo unspecified) -2.15%
[Cl][In]([Cl])[Cl] -17.9% [at 116 µM, percent change from vehicle, -100% = no light]
Cc1ccc2oc3c(c(=O)c2c1)C(c1ccc(O)cc1)N(c1nc(C)c(C)s1)C3=O (stereo unspecified) -4.25%
CCC(=O)Nc1nnc(S(=O)(=O)N2c3ccccc3CC2C)s1 (stereo unspecified) -9.63%
CC(C)Cc1ccc(C(C)C(=O)O)cc1 (stereo unspecified)
Cc1ccc(CNc2nc3ccccc3n3cnnc23)cc1 -8.95%
Cc1csc2nc(COC(=O)c3ccc(NC(=O)C(C)Oc4ccccc4)cc3)cc(=O)n12 (stereo unspecified) -29.3%
COc1ccc(NC(=O)c2cnc(N3CCCC3)nc2)cc1OC -0.561%
COc1ccc(CN2CCN(C(c3ccc(F)cc3)c3ccc(F)cc3)CC2)c(OC)c1OC -26.9%
CCCC1=Nc2cc(C(=O)N3CCC(C(=O)OCC)CC3)ccc2Sc2ccccc21 -32.6%
Cc1cccc(NC(=O)C2CCCN2S(=O)(=O)c2ccc3c(c2)n(C)c(=O)c(=O)n3C)c1 (stereo unspecified) -0.0064%
Cc1cc(C)c2oc(-c3cccc(NC(=O)c4ccc(-c5cccc([N+](=O)[O-])c5)o4)c3)nc2c1 12.2%
O=C(NCc1cccc(F)c1)c1ccccc1NC(=O)c1nsc2ccccc12 -9.26%
O=C(C1CCCN(S(=O)(=O)c2cccc3nsnc23)C1)N1CCN(c2cccc(Cl)c2)CC1 (stereo unspecified) -71.1%
Cc1ccc2nc(-c3ccccn3)c(Nc3ccccc3C)n2c1 -75.3%
CCCN1CCc2nc(N3CCN(C)CC3)ncc2C1 -17.7%
CCN(CC)c1nn2c(=O)c(C(=O)NCCc3cccc(C)c3)cnc2s1 -20.9%
CCc1cccc(C)c1NS(=O)(=O)c1ccc2c(c1)CC(C)N2C(=O)C1CC1 (stereo unspecified) -50.4%
COc1ccc(-c2noc(CSc3nc4ccccc4[nH]3)n2)cc1OC -27.9%
COc1ccc(S(=O)(=O)NCCc2csc3nc(-c4ccccc4)nn23)cc1OC -20.3%
CCN1C(=O)C(O)(c2c[nH]c3ccccc23)c2cc(Br)ccc21 (stereo unspecified) -13.3%
Cc1cccc(Cn2c(=O)n(-c3ccccc3C)c(=O)c3c2c2cc(C)ccc2n3C)c1 -19.4%
Cc1ccc(CCNC(=O)C2CCN(S(=O)(=O)c3ccc4c(ccn4C)c3)CC2)cc1 -12.4%
Cc1ccc(-c2nc3c4c(-c5ccccc5)c(-c5ccccc5)oc4ncn3n2)cc1 -6.13%
Cc1ccc(CNC(=O)CSc2nc3ccccc3nc2Cc2ccc(C)cc2)cc1 -4.34%
CCOc1ccc(NC(=O)c2c(C)oc3nc(C)nc(N4CCOCC4)c23)cc1 -4.4%
Cc1cccc(-c2nc3c(cnn3-c3ccccc3)c(=O)n2-c2ccc(Cl)cc2)c1 17.9%
COc1ccc(NC(=O)CSc2nc(C)cc(C)c2C(=O)Nc2ccccc2OC)cc1 -18.3%
COc1ccc(S(=O)(=O)NCC(c2ccco2)S(=O)(=O)c2cccs2)cc1F (stereo unspecified) -15.5%
O=C(CCSCc1cccc(Cl)c1)NCCc1ccc(Cl)cc1 -3.82%
CC(C)N1[N]C(=C2C=c3cc(O)ccc3=N2)c2c(N)ncnc21 -44%
O=C(c1ccccc1)N1CCc2cc(CNS(=O)(=O)c3ccc(Cl)s3)ccc21 -37.2%
CCc1ccc(C(=O)C(C)CN2CCCCC2)cc1 (stereo unspecified) -10.2%
COc1ccc(-n2c(SCC(=O)NCc3ccc(F)cc3)nc3c([nH]c4ccccc43)c2=O)cc1 -28.5%
Cc1oc(-c2ccc(Cl)cc2)nc1Cn1c(=O)cc(C)c2c(C)nn(-c3ccccc3)c21 -7.3%
COc1ccccc1CNC(=O)CCCCn1c(=O)c2ccccc2n(Cc2ccccc2F)c1=O -15.6%
CC(=O)Nc1cccc(NC(=O)Cn2cnc3c(oc4ccccc43)c2=O)c1 6.88%
Cn1c(=O)n(C)c2cc(N3CCOCC3)c(NS(=O)(=O)c3cccc(C#N)c3)cc21 0.825%
Cc1sc2c(c1C)c(=O)n(-c1ccc(Cl)cc1)c(=O)n2Cc1cc(=O)n2ccccc2n1 2.89%
Cc1ccc2nc(N3CCC(C(=O)N4CCN(c5cccc(C)c5C)CC4)CC3)[nH]c2c1 -30.7%
CC1CCCN(C(=O)c2cc3c(=O)n(C)c4ccccc4c3s2)C1 (stereo unspecified) -0.762%
COc1ccc(C2C(C(N)=O)=C(C)Nc3nc(SCc4ccccc4Cl)nn32)cc1OC (stereo unspecified) -18%
CCOc1ccc(C(=O)NCc2nc3cccnc3n2Cc2ccc(F)cc2)cc1OCC -11.8%
Cc1ccc(CNC(=O)c2nc(SCc3ccccc3F)ncc2Cl)cc1 -20.2%
CCOC(=O)c1ccccc1NC(=O)CSc1nc2ccncc2[nH]1 -19.1%
O=C(NCc1ccco1)c1ccc(Cn2c(SCc3ccc(F)cc3)nc3cccnc32)cc1 -0.514%
CCOC(=O)c1ccc(N2C(=O)c3n[nH]c(C)c3C2c2cccc(Br)c2)cc1 (stereo unspecified) -68.7%
COc1ccc(CNC(=O)Cn2nnc(-c3ccc(C(F)(F)F)cc3)n2)cc1 28.3%
COc1ccc(C(=O)c2cn(Cc3ccccc3F)c3cc4c(cc3c2=O)OCO4)cc1 -24.2%
O=c1cc(-c2ccccc2)n2c(SCc3ccc(Cl)cc3)nnc2[nH]1 8.1%
COc1ccc(-n2c3c(cc(-c4nc(-c5ccc(C)cc5)cs4)c2=O)C(=O)CC(C)(C)C3)cc1 -4.92%
CC(C)C(=O)NCC(c1ccc2c(c1)OCO2)N1CCN(c2ccccc2F)CC1 (stereo unspecified) -20.5%
COc1ccccc1C(=O)Nc1ccc2oc(-c3cccc(Cl)c3Cl)nc2c1 1.06%
NCc1nc2cccnc2n1Cc1ccccc1Cl -5.43%
COc1ccccc1CNC(=O)CCc1c(C)nn(-c2ccc(N3CCOCC3)nn2)c1C -6.03%
COc1ccc(NC(=O)CSc2nc3c([nH]c4ccccc43)c(=O)n2-c2ccccc2)c(OC)c1 -33%
O=C(NCc1ccco1)c1ccc2c(c1)N(Cc1ccccc1)C(=O)c1ccccc1S2(=O)=O -15.1%
COCCNc1ncnc2c1c(-c1ccccc1)cn2-c1ccc(C)c(Cl)c1 -19.5%
COc1ccc(-n2ncc3c(NC(C)(C)CO)ncnc32)cc1 -10.4%
CCOc1ccc(NC(=O)Cn2c3ncccc3c(=O)n2-c2ccc(CC)cc2)cc1 -8.77%
CCN(CC)S(=O)(=O)c1ccc(NC(=O)NCc2noc3ccc(C)cc23)cc1 -24.2%
Cc1ccc(CNC(=O)c2oc3c(c2C)-c2nn(Cc4ccc(Cl)cc4)cc2CC3)cc1 -33%
Cc1cc(S(=O)(=O)C(CNC(=O)c2ccc(OC(C)C)cc2)c2cccs2)ccc1F (stereo unspecified) -38.2%
CCOC(=O)CNc1nc(Oc2ccc(=O)n(C)n2)nc(N(CC)CC)n1 -26.9%
COc1ccc(N2CCN(Cc3nc4c(c(=O)[nH]c(=O)n4C)n3Cc3ccc(Cl)cc3)CC2)cc1 -21.5%
Cc1cccc(-c2nc(SCC(=O)N3CCc4ccccc43)c3c(=O)n(C)c(=O)n(C)c3n2)c1 -2.59%
CCC(=O)Nc1cc(-c2cccc(C)c2)nn1-c1ccccc1 17.9%
COc1cccc2c1ncc1c(-c3ccc(C)cc3)nn(-c3cccc([N+](=O)[O-])c3)c12 -17.7%
Cc1cccc(-c2nnc(SCc3cc(=O)c4cccc(Cl)c4[nH]3)n2C)c1 -37.9%
CCOc1ccc(-n2c(SCC(=O)N3CCc4ccccc43)nc3c([nH]c4ccccc43)c2=O)cc1 -9.73%
COc1ccc(NC(=O)Cn2c(=O)c(-c3cc(C)ccc3NC(C)=O)nc3ccccc32)c(OC)c1 -4.6%
Cc1cc(C)cc(NC(=O)C(=O)NCC(c2ccc3c(c2)OCO3)N2CCN(C)CC2)c1 (stereo unspecified) 13%
